Assay results taken from the supplement of paper PMC11417369.
The list shows a part of the results.

tested on: PF3D7_0420300 AP2 domain 1 (GST-tagged); assay: gcPBM binding intensity (ln(normalized median fluorescence intensity)); higher = stronger DNA binding
Outline: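 Binding intensity is defined as the maximum Masliner-normalised natural-log median intensity across replicate spots for either probe orientation. It was measured on an Agilent 4 × 180k array of primer-extended double-stranded 36-bp intergenic genomic probes and negative controls, to which GST-tagged P. falciparum DNA-binding domains made in E. coli were applied for 1 h in 1× PBS with 1% milk, 0.2 mg/ml BSA, 0.5% salmon testes DNA and 0.03% Triton X-100. Detection was by Alexa488 anti-GST antibody and scanning at 488 nm.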

Point of comparison: “TTCTACGTTTTAAAAAAAAAAAAAAAAAAAAAAAAA [XGTACX_negctrl_site6]”, “gcPBM binding intensity (ln)” value 8.6. Against it:
- AAATATTTGTGTGGTTGTACTATAATGATAAAAATA [XGTACX_site7703] — higher, 9.3
- TTTTTTTTTTTTGAGTGTACAAGATTGTTGTTCCAA [XGTACX_site6120] — higher, 9
- CATACATACAAACACACACACATATATATATATATA [CACACA_site43] — higher, 9.86
- TTATATTATATATATATTATATATATGTATGCATAA [TGCATGCA_negctrl_site481] — higher, 9.02
- GGTTTGAATTTTTAAGTGCATATAACATAAATGAAA — higher, 8.98
- ATCCTCTTTTTAAGTTGTACAGGGTCGAAAAAAAAA [XGTACX_site6852] — higher, 8.94
- GATTATTATTATAAGGGTACAAATATTTAATAAAAA [XGTACX_site7144] — higher, 9.21
- CATGTCAAAATTATACGTACATATATAAGTTCCATT [XGTACX_site6331] — higher, 9.29
- AAAAAAAAATAAAAAAGTACATTCATTTTATAAGAT [XGTACX_site3507] — higher, 9.07
- TTTAATTCTTATATTTGTACAGATTCATAATTAAAT [XGTACX_site7465] — higher, 9.01
- CGTTTATTAAACTTGACACACACACCCCCACATATA [CACACA_site8151] — higher, 9.91
- TATATATATATATATGCATGCCATATGATATATATA [TGCATGCA_site109] — higher, 9.01
- AATCGATAACAATGTAGTACCAGAAAAATAAATATT [XGTACX_site8501] — higher, 9.57
- TCATATTTACAAAAAGGTATTAATAAATAAAATATT [CACACA_negctrl_site259] — higher, 9.09
- AATAAGTGTTGATTCTTAAAATGACCATATAATAAT [TGCATGCA_negctrl_site221] — higher, 9.09
- TATCTTTTATAAGTGACACACATAAATATTTAAATT [CACACA_site833] — higher, 9.21
- ATATTAGGGTCATGAACACACAAAAAAAAAAAAAAA [CACACA_site937] — higher, 9.1
- GCTATCATATCATGTTGTACACAACCTCAAAATGAA [XGTACX_site8757] — higher, 9.12
- AATTATAATAAATAACGTACAAAAAATAAATTATTT [XGTACX_site3627] — higher, 9.35
- ATAAAAATAAAATGGACACACATATATACATATTTG [CACACA_site3277] — higher, 9.68
- ATAAGCGAATATATATCACACACAAAAAAATCAGAC [CACACA_site8657] — higher, 10.1
- TATATATTCATGTGTACACACAAAAAAAAATAAAGT [CACACA_site2207] — higher, 9.92
- TTTTTTTTTGATATTTGTACTTAAGTAAATATTATA [XGTACX_site3843] — higher, 9.11
- ATATTACACAGATATGCACACATTGTAGTTATTTAT [CACACA_site5454] — higher, 9.66
- AAAAAGGAAATTTACACACACATATAACATACATTA [CACACA_site7534] — higher, 9.94
- ATTATATCACTGTGTTGTACTTCTTATATAAAAATA [XGTACX_site2333] — higher, 9.36
- ACATATCGGGTGCATTAACACACATTTATTTGAATA [CACACA_site8736] — higher, 9.31
- TCCGTATAATTTTGCACACGAATATAAATTTGATAA [CACACA_site136] — higher, 9.18
- TGAAGATAAAAATATGCACACATATATATATATATA [CACACA_site8027] — higher, 9.33
- CATAAAAATGAACATACACACATATATTTATTTATA [CACACA_site7222] — higher, 9.67
- ATTATATATATTGGAGTGCATATATAGTATTTTATA — higher, 9.25
- ACATATTATAGGAATACACACAAAAACTTATCGGTA [CACACA_site7587] — higher, 9.87
- ATAGAAATCTATTGTGATTATTATTTTATTTTTAGT [XGTACX_negctrl_site605] — higher, 9.25
- AATGTATTATGTAATAGTACGTATAATATCTTATTT [XGTACX_site3] — higher, 9.28
- ATACATATCTATAATACACACATAAATGTAACATTT [CACACA_site7621] — higher, 9.62
- AATAATAACAAATGAACACACATATATATGAGCAAA [CACACA_site2121] — higher, 9.73
- TTGATATAAAAAGAAAGTACTTTATAGATGTTTATT [XGTACX_site8144] — higher, 9.16
- TATAAAAATATATATATATATATATATATATATATA [TGCATGCA_negctrl_site541] — higher, 8.89
- TTCTCCATCAGATACTGTACATAATATATATAATAT [XGTACX_site8827] — higher, 9.39
- TGTATAACCTGTGTTACACACATTAGAATTTATATA [CACACA_site6393] — higher, 9.34
- GCATCATTTATTTGCACACCTATTATATACTTTTTA [CACACA_site2098] — higher, 9.67
- TATATAAAGATATATACACACAAAAAAAAAAAAAAA [CACACA_site6778] — higher, 9.32
- TACATAAACTTTATAACACACACTTATATATATATA [CACACA_site1106] — higher, 9.54
- AAAAAGAATATAAGTAGTACAGTGCATATAATAATT [XGTACX_site617] — higher, 9.77
- TATAATTTTTTTAATACACACAAATATTTATATATA [CACACA_site3042] — higher, 9.23
- AATTAATGTTTTGTCACACAGTATGATTATATATAT [CACACA_site6143] — higher, 9.51
- AAGAGAAATGGGCACACACACACATATTATATATAT [CACACA_site1531] — higher, 10.1
- TATATATACATATACGCATGTAAATTCAAAAGTAAA [TGCATGCA_site956] — higher, 9.18
- TTAGTATATTTTTCCTGTACGTACTCAGATACAAAT [XGTACX_site7397] — higher, 9.19
- TTAAATAATTTTTAATGTACATTAAATTTATTATTA [XGTACX_site261] — higher, 8.75
- TACACATTATGTATCATACACACAAATAAATATATA [CACACA_site608] — higher, 9.55
- TTCTATTTTTTAAAAGTGCATATTATAAATATATAT — higher, 9.02
- AATAGTTCTTGAACGTGTACATAAAATATAATTTAC [XGTACX_site11] — higher, 9.17
- GAAATCTAAATAGAAACACACATATATAAATAAATA [CACACA_site7762] — higher, 9.5
- GAATAATCCAAACACACACACACACCCGAATAAATA [CACACA_site482] — higher, 10.2
- TAGTATTTATATGTTATATATATAAAATAATACAGT [XGTACX_negctrl_site571] — higher, 9.34
